# Laboratory results published in PMC4336329 (PLoS ONE, 2015).
# Screen size: about 310,000 compounds; about 2,200 (0.71%) showed an effect of 50% or more. The effect is printed as a negative number. The list shows a part of the results.
# Molecular target: human ether-à-go-go-related gene (hERG) potassium channel (human, UniProt Q12809)
# Assay: primary screen, population patch clamp on CHO cells stably expressing hERG
# human ether-à-go-go-related gene (hERG) potassium channel, sequence (Q12809 whole entry, looked up): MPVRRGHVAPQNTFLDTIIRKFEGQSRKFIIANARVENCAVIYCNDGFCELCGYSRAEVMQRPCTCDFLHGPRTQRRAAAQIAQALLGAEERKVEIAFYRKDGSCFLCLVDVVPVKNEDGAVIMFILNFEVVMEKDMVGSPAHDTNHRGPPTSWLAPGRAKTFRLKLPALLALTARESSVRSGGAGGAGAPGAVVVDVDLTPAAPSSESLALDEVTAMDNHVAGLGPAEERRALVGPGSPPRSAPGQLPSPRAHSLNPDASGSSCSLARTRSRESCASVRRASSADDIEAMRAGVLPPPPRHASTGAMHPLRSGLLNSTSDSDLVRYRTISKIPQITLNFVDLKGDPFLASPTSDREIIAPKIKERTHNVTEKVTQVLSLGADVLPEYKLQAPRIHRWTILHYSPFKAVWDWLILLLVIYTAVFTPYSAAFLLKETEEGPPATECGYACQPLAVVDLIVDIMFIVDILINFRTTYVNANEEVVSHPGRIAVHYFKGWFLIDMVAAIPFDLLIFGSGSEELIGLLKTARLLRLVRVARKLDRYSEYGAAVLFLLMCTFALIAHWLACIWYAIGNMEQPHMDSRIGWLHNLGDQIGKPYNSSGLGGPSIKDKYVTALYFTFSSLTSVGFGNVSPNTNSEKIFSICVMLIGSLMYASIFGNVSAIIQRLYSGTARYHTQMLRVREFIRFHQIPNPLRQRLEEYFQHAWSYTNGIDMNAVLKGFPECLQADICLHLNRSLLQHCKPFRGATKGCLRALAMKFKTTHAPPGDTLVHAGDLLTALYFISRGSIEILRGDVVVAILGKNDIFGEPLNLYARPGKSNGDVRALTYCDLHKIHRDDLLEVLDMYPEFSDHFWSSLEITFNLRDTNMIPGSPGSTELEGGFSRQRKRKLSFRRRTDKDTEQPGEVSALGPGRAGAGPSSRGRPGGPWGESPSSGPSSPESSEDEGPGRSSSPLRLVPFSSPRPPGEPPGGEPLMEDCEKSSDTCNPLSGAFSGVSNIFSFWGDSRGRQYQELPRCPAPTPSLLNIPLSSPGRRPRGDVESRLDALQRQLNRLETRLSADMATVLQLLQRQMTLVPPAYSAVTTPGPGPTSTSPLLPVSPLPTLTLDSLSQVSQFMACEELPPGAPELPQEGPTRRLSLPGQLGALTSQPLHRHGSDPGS
row,SMILES,"hERG current change (%, negative = inhibition) at 1uM"
1,COC(=O)c1c(NC(=S)Nc2ccc(C(=O)N3CCOCC3)cc2)sc2c1CCC2,7.77%
2,CC(C)(C)NC(=O)NC(=O)COC(=O)C1c2ccccc2Oc2ccccc21,2.9%
3,CCOC(=O)NC(=O)/C(C#N)=C(/C)N(C)C,10.2%
4,O=C1CS/C(=C/C(=O)c2ccccc2)N1,6.1%
5,CS(=O)(=O)N(Cc1ccc(Cl)cc1)c1ccc(C(=O)Nc2cccnc2)cc1,7.21%
6,CCOC(=O)Cc1csc(NC(=O)c2cc3c(s2)CCCC3)n1,-18.1%
7,CCOc1ccc(NC(=O)CCC(=O)N/N=C(\C)c2cccs2)cc1,10.8%
8,CC(C)N1CCC(N2CCN(CC#Cc3ccccc3)CC2CCO)CC1 (stereo not shown),11.6%
9,Cc1nc(NC(=O)C2CC3CCCC(C2)C3=O)sc1C (stereo not shown),7.67%
10,Cc1ccc(S(=O)(=O)N2CCOCC2)cc1C(=O)NC1CCCCCC1,7.11%
11,CN(C)c1ccc(/C=N/n2ncc3ccccc32)cc1,9.74%
12,Cn1c(=O)c(=O)n(C)c2cc(N3CCCCC3)c(NS(=O)(=O)c3ccc(Br)cc3)cc21,-10.2%
13,CCCN(CCC)CCCNC(=O)c1cc2cc3ccc(Cl)cc3nc2o1,-6.08%
14,COc1ccc(CCNC(=O)[C@H](C)NC(=O)N2CCn3c2nc2ccccc23)cc1OC,11.1%
15,O=C(CN1C(=O)CC(c2ccccc2)S(=O)(=O)c2ccccc21)N1CCCCC1 (stereo not shown),6.14%
16,CN(C)c1ccc(/C=C2\SC(N3CCCCC3)=NC2=O)cc1,4.58%
17,Br.N=C(N)SCCc1cccc(CCSC(=N)N)c1,11.2%
18,N#CC1=C(N)OC(c2ccccc2)=C(C#N)C1c1ccc2c(c1)OCO2 (stereo not shown),15.2%
19,CCN(Cc1ccccc1)C(=O)Cn1cnc2c1c(=O)n(C)c(=O)n2C,-12%
20,CC(NC(=O)COC(=O)Cc1ccccc1[N+](=O)[O-])c1ccccc1 (stereo not shown),5.9%
21,O=C(Cc1cccs1)Nc1ccc(C(=O)O)cc1,-1.57%
22,O=C1CN(c2ccccc2Cl)C(=O)CN1c1ccccc1Cl,6.48%

row,SMILES,"hERG current change (%, negative = inhibition) at 1uM"
1,O=C(Nc1cccnc1)c1cc(-c2cccs2)on1,3.27%
2,O=C(CN1C(=O)C2C3CC(C(Br)C3Br)C2C1=O)OCC(=O)c1cccc([N+](=O)[O-])c1 (stereo not shown),9.95%
3,CCCOc1ccc(N2C(=O)CC(N(Cc3ccco3)C(=O)CC)C2=O)cc1 (stereo not shown),7.24%
4,O=C(NCCN1C(=O)C2C3C=CC(C3)C2C1=O)Nc1ccccc1O (stereo not shown),1.22%
5,CN(C)c1cccc(C(=O)NCc2ccc3c(c2)OCO3)c1,7.91%
6,COc1ccc(/C=C2\SC(=S)N(NS(=O)(=O)c3ccccc3)C2=O)c(OC)c1,4.11%
7,CC1CCC2C(=O)N(c3cccc(OS(=O)(=O)c4ccccc4)c3)C(=O)C2C1 (stereo not shown),-4.73%
8,O=C(CCN1C(=O)/C(=C/c2ccccc2Cl)SC1=S)NCCc1ccc(O)cc1,19%
9,Cc1ccccc1/C=N/Nc1ncnc2nc[nH]c12,11.1%
10,Cc1cc(C)c2nc(N(CCCN(C)C)C(=O)C3=COCCO3)sc2c1.Cl,-21.9%
11,O=C(Nc1ccc(F)cc1)C(c1ccccc1)N1CCN(S(=O)(=O)c2ccc3ccccc3c2)CC1 (stereo not shown),6.85%
12,Cc1nn(CCCC(=O)Nc2cc(Oc3ccc(F)cc3)cc([N+](=O)[O-])c2)c(C)c1[N+](=O)[O-],-8.22%
13,O=C(OCc1nnc(-c2ccccc2)o1)c1cc(=O)c2ccccc2o1,17.9%
14,CCNC(=O)NC(=O)C(C)OC(=O)c1c(C)nn(Cc2ccccc2Cl)c1Cl (stereo not shown),11.4%
15,[O-][n+]1ccc(C(O)c2ccccc2)cc1 (stereo not shown),22.1%
16,COc1ccc(N2C3=C(C(=O)CC(C)(C)C3)C(c3ccccc3OC)C3=C2CC(C)(C)CC3=O)cc1,11.6%
17,CC(=O)c1ccccc1OCC(O)CNC1CCCC1.Cl (stereo not shown),4.81%
18,Cc1cc(S(=O)(=O)N2CCCC2)ccc1OCC(=O)NCc1ccco1,0.251%
19,Cc1ccc(S(=O)(=O)NC2=NCN(CCc3ccccc3)CN2)cc1,11.8%
20,O=C(CSc1nc2nn(-c3ccccc3)c(=O)c-2c2n1CCCCC2)Nc1ccc(F)cc1F,-2.84%
21,Cc1cc(N2CCCC(C(=O)Nc3ccc4c(c3)CCC4)C2)n2ncnc2n1 (stereo not shown),-27.3%
